# In all, about 310,000 compounds went through this assay and about 18,000 (5.8%) were called active. The shares of active, inactive and inconclusive entries below differ from those in the screen. Calls come from the whole dose curve; as a rule, active = well fitted inhibition curve with a large enough effect; inconclusive = small, poorly fitted or top-dose-only effect, or another doubt; inactive = no such curve, though single readings can be large or run the other way. No potency is given beside an inconclusive call; the fits are too rough.
# Assay: Primary qHTS for delayed death inhibitors of the malarial parasite plastid, 48 hour incubation
# Conditions: P. falciparum luciferase growth in erythrocytes; series mostly up to 28.7 µM; activity change, negative = inhibition: at the top concentration
# Summary of the method: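 Read-out is firefly luciferase luminescence from an integrated reporter in P. falciparum, so falling signal marks reduced parasite growth. Infected erythrocytes were at 2% hematocrit and 0.1% parasitemia (final) in Albumax-supplemented RPMI 1640.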
# % is set by controls: 0 for no effect and ±100 for the full control effect; potency is the fitted concentration of half-maximal effect; tags give direction and shape of the fitted curve.
Compound,Potency,"activity change, negative = inhibition"
Cc1ccc(C23CC4CC(CC(CC(=O)NC(C)(C)CO)(C4)C2)C3)cc1,"inconclusive [inhibitor, partial curve, poor fit]",–
CCN1CCN(C(=O)c2ccc(CN(c3ccc(C)c(C)c3)S(C)(=O)=O)cc2)CC1,"inconclusive [inhibitor, single point]",–
NC(N)=N/N=C/c1ccc(Br)cc1,active: 11.7 µM,–
O=C(Nc1ccccc1)N1CCN(c2ccc(F)cc2)CC1,active: 13.1 µM,–
COc1ccc(OC)c(C(C)NC(=O)c2ccc(Br)cc2)c1 (stereo not drawn),–,inactive: -0.975%
CC1=CCC(C(=O)O)C(C(=O)O)C1 (stereo not drawn),–,inactive: 53.9%
Cc1cccc(N(C(=O)CCC(=O)Nc2cc(C)on2)C(C(=O)NC2CCCC2)c2ccncc2)c1 (stereo not drawn),"inconclusive [inhibitor, partial curve, poor fit]",–
CC(C)N1CCC(N2CCN(Cc3nc4ccccc4s3)CC2CCO)CC1 (stereo not drawn),"inconclusive [inhibitor, partial curve, poor fit]",–
CCOc1ccc(N(CC(=O)NCCc2ccc(C)cc2)S(=O)(=O)c2c(C)noc2C)cc1,"inconclusive [inhibitor, single point]",–
CC(C)OC(=O)c1ccc(N2CCN(c3ccccc3F)CC2)nc1,–,inactive: -12.3%
O=C1c2cccc(OCc3ccc(F)cc3)c2CCN1Cc1ccccc1,"inconclusive [inhibitor, partial curve, poor fit]",–
O=C(Nc1cccc(F)c1)c1c(O)c2ccccc2[nH]c1=O,–,inactive: 60.4%
O=C(CCCCCNC(=O)N1CCn2c1nc1ccccc12)NCc1ccccc1,"inconclusive [inhibitor, single point]",–
CC(C)Cc1nc2sc3c(=O)[nH]cnc3c2c2c1CCCC2,"inconclusive [inhibitor, single point]",–
C/C(Cc1ccccc1)=N\NC(=O)CNC(=O)c1cccc(Cl)c1,–,inactive: 22.3%
COc1ccc2c(C)cc(N3CCN(c4ccc(F)cc4)CC3)nc2c1,"inconclusive [inhibitor, single point]",–
O=C(O)c1cc(NC(=O)C2CCCO2)cc(C(=O)O)c1 (stereo not drawn),–,inactive: 21.9%
C=CCOc1ccccc1/C=N/NC(=O)c1ccc(Cl)cc1Cl,–,inactive: 4.01%
COc1ccccc1C(=O)NNC(=O)CCCN1C(=O)/C(=C/c2cccs2)SC1=S,"inconclusive [inhibitor, full curve]",–
COc1ccc(-c2nn(-c3ccccc3)cc2/C=N/NC(=O)c2cccc(S(=O)(=O)Nc3ccccc3Cl)c2)cc1,active: 9.28 µM,–
COc1cc(C(=O)Oc2ccccc2/C=N/NC(=O)c2ccc(Cl)cc2)cc(OC)c1OC,active: 13.1 µM,–
O=C(O)c1ccccc1NC(=S)NC(=O)c1sc2ccccc2c1Cl,–,inactive: 22.3%
COc1ccc(CC(=O)Nc2cccc(-c3nnc(-c4cccc(C)c4)o3)c2)cc1OC,"inconclusive [inhibitor, single point]",–

Compound,Potency,"activity change, negative = inhibition"
O=C(NC1CCCCCC1)c1c(O)c2ccccc2[nH]c1=O,"inconclusive [inhibitor, single point]",–
O=C(NCc1ccccn1)Nc1ccc(F)cc1,–,inactive: 52.2%
CCOc1cc(C)nc(N2CCCC(C(=O)NCc3ccccc3F)C2)n1 (stereo not drawn),active: 2.94 µM,–
COc1ccc(CCNC(=O)c2cc(S(=O)(=O)N3CCOCC3)ccc2F)cc1,"inconclusive [inhibitor, single point]",–
Cc1sc2nc(CSC(C)C(=O)Nc3ccc(C#N)cc3)[nH]c(=O)c2c1C (stereo not drawn),"inconclusive [inhibitor, single point]",–
COc1ccc(CNC(=O)C(C)Sc2ccc(S(=O)(=O)N3CCOCC3)cn2)cc1 (stereo not drawn),"inconclusive [inhibitor, single point]",–
CCOC(=O)NN1C(=O)c2ccccc2NC1c1cccnc1 (stereo not drawn),–,inactive: 8.5%
COc1ccc(C)cc1NC(=O)COC(=O)c1ccc([N+](=O)[O-])o1,"inconclusive [inhibitor, single point]",–
COc1ccccc1Nc1nc(-c2sc(NC(=O)c3cccc(Cl)c3)nc2C)cs1,"inconclusive [inhibitor, partial curve]",–
O=[N+]([O-])c1ccc(C[n+]2cc(-c3ccccc3)n3c2CCCCC3)cc1,active: 5.22 µM,–
COc1cccc(NC(=S)N2CCN(S(=O)(=O)c3ccccc3)CC2)c1,"inconclusive [inhibitor, single point]",–
COC(=O)CCN(c1ccccc1)S(=O)(=O)c1cc(-c2cc(C)no2)ccc1C,"inconclusive [inhibitor, single point]",–
CC(NS(=O)(=O)c1ccc(NC(=O)N2CCCCC2)cc1)c1ccccc1 (stereo not drawn),–,inactive: -15%
COc1nc(OCCNS(=O)(=O)c2ccc(C)cc2)nc(N(C)C)n1,"inconclusive [inhibitor, partial curve, poor fit]",–
CCN(CC)S(=O)(=O)N1CCC(C(=O)NCC2COc3ccccc3O2)CC1 (stereo not drawn),"inconclusive [inhibitor, single point]",–
Cc1sc(NC(=O)c2ccco2)c(C(Nc2ccccn2)c2ccccc2)c1C (stereo not drawn),"inconclusive [inhibitor, single point]",–
Cc1ccc(-c2nonc2NC(=O)c2ccco2)cc1,"inconclusive [inhibitor, single point]",–
CC(Nc1ccc(S(=O)(=O)N2CCN(C)CC2)cc1[N+](=O)[O-])c1ccccc1 (stereo not drawn),"inconclusive [inhibitor, single point]",–
COc1cccc(C2CC(c3cccs3)=NN2S(C)(=O)=O)c1OC (stereo not drawn),–,inactive: -7.34%
COc1ccc(C(=O)N/C(=C\c2cn(C)c3ccccc23)C(=O)N2CCOCC2)cc1,"inconclusive [inhibitor, single point]",–
Clc1ccc(-c2noc3c2-c2nc(Cc4cccc5ccccc45)sc2CC3)cc1,"inconclusive [inhibitor, single point]",–
S=c1[nH]nc(COc2ccc(Cl)cc2Cl)n1-c1ccccc1,"inconclusive [inhibitor, full curve, poor fit]",–
COC(=O)C1=C(c2ccc(F)cc2OCc2ccccc2)C[C@@H]2CC[C@H]1N2C(=O)NCCOc1ccccc1,active: 5.86 µM,–

Compound,Potency,"activity change, negative = inhibition"
COc1ccc(C(CCN)c2ccc3c(c2)OCO3)cc1 (stereo not drawn),"inconclusive [inhibitor, partial curve, poor fit]",–
O=C(CNS(=O)(=O)c1ccc2ccccc2c1)Nc1ccc(F)c(F)c1F,"inconclusive [inhibitor, single point]",–
COc1cc(C(=O)NNC(=S)NC(=O)/C=C/c2ccccc2)cc(OC)c1OC,"inconclusive [inhibitor, partial curve, poor fit]",–
CC(NC(=O)COC(=O)c1ccc(OCC2CCCO2)cc1)c1ccccc1Cl (stereo not drawn),"inconclusive [inhibitor, single point]",–
Cc1cc(CNC(=O)CC2C(=O)NCCN2Cc2ccccc2C(F)(F)F)on1 (stereo not drawn),"inconclusive [inhibitor, partial curve]",–
Cc1ccccc1Nc1nnc(SCC(=O)c2c(N)n(C)c(=O)n(C)c2=O)s1,active: 5.22 µM,–
CC(=O)Nc1cccc(C(=O)N2CCN(Cc3ccccc3)CC2)c1,–,inactive: 30.1%
Cc1ccc(S(=O)(=O)N2CCOC2CNC(=O)C(=O)NCCCN2CCOCC2)cc1 (stereo not drawn),–,inactive: 124%
CC1CCc2c(nc3ncnn3c2Nc2ccc(OC(F)(F)F)cc2)C1 (stereo not drawn),"inconclusive [inhibitor, single point]",–
Cc1ccc(Cl)cc1Nc1nc(-c2sc(NC(=O)c3ccco3)nc2C)cs1,"inconclusive [inhibitor, partial curve]",–
COCCNC(=O)CSc1nnc(CCCN2C(=O)c3cccc4cccc(c34)C2=O)n1-c1ccccc1,"inconclusive [inhibitor, full curve, poor fit]",–
COc1ccc(-c2n[nH]c(C(F)(F)F)c2-c2cc3ccccc3o2)c(O)c1,active: 2.08 µM,–
COc1ccc(C(=O)NNC(=S)NC(=O)/C=C/c2cccs2)cc1,–,inactive: 191%
COc1ccccc1NC(=S)NCCc1c[nH]c2ccccc12,"inconclusive [inhibitor, single point]",–
CCCCCCN(C(=O)CCCCCN1C(=O)NC(c2ccc(-c3ccccc3)cc2)C(C(=O)OCc2ccccc2)=C1C)C(C(=O)NCCCC)c1ccc(O)c(C(=O)OC)c1 (stereo not drawn),active: 2.08 µM,–
CCOC(=O)c1c(NC(=O)CSc2nnc(Cc3ccccc3)o2)sc(C(C)=O)c1C,–,inactive: -21.2%
CCOc1ccc(C2C([N+](=O)[O-])=C(C)N(C)C(=O)N2C)cc1OC (stereo not drawn),"inconclusive [inhibitor, single point]",–
CCOc1ccc2ccccc2c1C1NC(=S)N(C)C(C)=C1C(=O)OC (stereo not drawn),"inconclusive [inhibitor, single point]",–
Cc1cc2c(cc1C)N(C(=O)CN1C(=O)c3ccccc3C1=O)C(C)(C)c1ssc(=S)c1-2,"inconclusive [inhibitor, single point]",–
Cc1ccc(C)c(S(=O)(=O)N2CCN(C(=O)CCC(=O)NCc3ccc(Cl)cc3)CC2)c1,"inconclusive [inhibitor, single point]",–
COc1cc(CN2CCN(Cc3c[nH]c4ccccc34)CC2CCO)cc(OC)c1 (stereo not drawn),–,inactive: -21.5%
Cc1nn(-c2ccc(F)cc2)c(-n2cccc2)c1C(=O)N1CCN(C(=O)c2ccco2)CC1,"inconclusive [inhibitor, single point]",–

# Reference: PubChem BioAssay AID504832 (National Center for Advancing Translational Sciences (NCATS), 2011)
